According to PubChem BioAssay AID1345082 (National Center for Advancing Translational Sciences (NCATS), 2018):
About 4,000 (4.3%) of roughly 94,000 compounds were called active. This list was built around the results that the source calls inconclusive (neither active nor inactive); the mix of calls is not that of the screen. Calls come from the whole dose curve; as a rule, active = well fitted inhibition curve with a large enough effect; inconclusive = small, poorly fitted or top-dose-only effect; inactive = no such curve, though single readings can be large or run the other way. Potencies beside an inconclusive call are fits to weak or partial responses and may not hold up.
Potency is the fitted concentration of half-maximal effect; tags give direction and shape of the fitted curve.

Assay: Cytotoxic Profiling in NIH 3T3 Cell Line of Diverse Libraries Using Quantitative High-Throughput Screening; note: nearly all actives have a fitted effect of over 55% in size
Settings: NIH 3T3 viability, CellTiter-Glo ATP luminescence, 48-72 h; series mostly up to 96.7 µM
In short: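 Cytotoxicity was measured by CellTiter-Glo ATP luminescence after 48 or 72 h compound exposure at 37 °C. Mouse NIH 3T3 fibroblasts were seeded at 400 cells/well and dosed by 23 nL pin transfer.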
In the case of `COCCCNc1nc2c([S+](=O)([O-])c3ccncc3)nnn2c2ccccc12`, the Potency is reported as inconclusive: 2.51 µM [inhibitor, full curve, poor fit].
For `COc1cc(-c2ccnc3nc(Cc4ccc(F)cc4)nn23)cc(OC)c1OC`, the Potency was inconclusive: 31.6 µM [inhibitor, partial curve, poor fit].
For `COc1ccc(-c2ccc(C(=O)N(C)CC#N)cc2)nn1`, the Potency was “inactive”.
For `CC(C)NC(=O)N1CCC2(CC1)CN(C(=O)Cc1cccc(O)c1)Cc1ccccc1O2`, the Potency was inconclusive: 50.1 µM [inhibitor, single point].
In the case of `O=C(c1ccccc1F)N1CCn2c(nn(-c3ccncc3)c2=O)C1`, the Potency is reported as inconclusive: 31.6 µM [inhibitor, partial curve, poor fit].
In the case of `C1CC(COCCc2noc(C3CNC3)n2)CCO1`, the Potency is reported as active: 12.6 µM.
For `CCc1cc(N(C)Cc2noc(C3CC3)n2)n2nc(C)c(C)c2n1`, the Potency was inconclusive: 50.1 µM [inhibitor, partial curve].
With `O=C(CCC1CCN(C(=O)c2cc(C3CC3)[nH]n2)CC1)N1CCC(Cc2ccccc2)CC1` the Potency was inconclusive: 63.1 µM [inhibitor, partial curve, poor fit].
For `CC(C)NC(=O)c1cc(-c2ccc(F)cc2)c2nncn2n1`, the Potency was inconclusive: 100 µM [inhibitor, partial curve].
In the case of `O=C1CCN(S(=O)(=O)c2ccccc2)CCCN(C(=O)c2ccc3ccccc3n2)CCN1`, the Potency is reported as “inactive”.
With `Cc1cc(C(=O)N2CCC(CCOc3ccc(F)cc3)C2)c(C)n1Cc1ccc(F)cc1` (configuration not stated) the Potency was inconclusive: 35.5 µM [inhibitor, partial curve, poor fit].
In the case of `O=C(NCCc1ccccc1)c1ccc(CN2C(=O)NC3(CCOCC3)C2=O)cc1`, the Potency is reported as “inactive”.
In the case of `O=C(NCC(F)(F)F)C1CCCCN1Cc1ccc(-c2cccs2)cc1` (configuration not stated), the Potency is reported as “inactive”.
For `O=C(c1cccc(Cl)c1)N1CCCC(C(=O)N2CCC(c3ccccc3)CC2)C1` (configuration not stated), the Potency was inconclusive: 50.1 µM [inhibitor, partial curve, poor fit].
With `Cc1nc(NCCc2nc3ccccc3n2C)cc(C2CC(O)C2)n1` (configuration not stated) the Potency was “inactive”.
For `CN1CCC2(C1)CN(CC1CCOCC1)c1ccc(C(=O)NCCOc3ccccc3)cc12` (configuration not stated), the Potency was active: 31.6 µM.
With `CC(C)CN(CC1CN(C(=O)Cc2cccs2)CCO1)C(=O)c1cccc2ccccc12` (configuration not stated) the Potency was inconclusive: 50.1 µM [inhibitor, partial curve, poor fit].
In the case of `CCc1nc2nccc(-c3ccco3)n2n1`, the Potency is reported as “inactive”.
With `Cc1nn(-c2ccccc2)c(C)c1[C@@H]1C=C[C@@H](NC(=O)c2ccc3c(c2)OCO3)C1` the Potency was inconclusive: 50.1 µM [inhibitor, partial curve, poor fit].
For `COc1cc(NC(=O)Cn2ccn3nc(-c4ccccc4)c(CO)c3c2=O)cc(OC)c1OC`, the Potency was inconclusive: 44.7 µM [inhibitor, partial curve, poor fit].
With `O=C(Nc1cccc(-c2nnc3n2CCCC3)c1)C1CCCC1` the Potency was “inactive”.
In the case of `O=C(NCc1ccc(F)cc1)c1nn(CCOc2ccccc2)c2c1CNCC2`, the Potency is reported as inconclusive: 25.1 µM [inhibitor, full curve, poor fit].
For `CSc1ccc(-c2cccc(C(=O)NCC(=O)N3CCCC3)c2)cc1`, the Potency was inconclusive: 39.8 µM [inhibitor, partial curve, poor fit].
With `O=C(c1cccc2[nH]ccc12)N1CCC(N2C(=O)C3(CCCCC3)C2c2ccncc2)CC1` (configuration not stated) the Potency was “inactive”.
With `COc1ccc2nc(CO[C@H]3CN(C(=O)c4ccccc4)C[C@H]3F)[nH]c2c1` the Potency was “inactive”.
In the case of `Cn1cc(C2c3nccn3CCCN2C(=O)c2ccccc2F)cn1` (configuration not stated), the Potency is reported as “inactive”.
In the case of `Cc1noc(-c2cn(C3CCN(C(=O)c4cccc(OC(F)(F)F)c4)CC3)nn2)n1`, the Potency is reported as inconclusive: 10 µM [inhibitor, full curve].
For `Cc1nn2c(c1-c1ccccc1N1CCCC1)N(C(=O)c1cccc(N(C)C)c1)CCC2`, the Potency was inconclusive: 100 µM [inhibitor, partial curve, poor fit].
For `COc1cccc(NC(=O)[C@@H]2C[C@@H](O)CN2C2CCN(C(=O)c3cccc(OC)c3)CC2)c1`, the Potency was inconclusive: 44.7 µM [inhibitor, partial curve, poor fit].
In the case of `O=C(c1cn(C2CCCCC2)nn1)N1CCCC(C(=O)N2CCOCC2)C1` (configuration not stated), the Potency is reported as “inactive”.
In the case of `O=C(c1ccncc1)N1CC(N(Cc2ccncc2)CC2CC2)C1`, the Potency is reported as inconclusive: 70.8 µM [inhibitor, single point].
In the case of `CS(=O)(=O)c1cnc(NCCCc2ccccc2)nc1C1CCCNC1` (configuration not stated), the Potency is reported as inconclusive: 79.4 µM [inhibitor, partial curve, poor fit].
For `O=C(NC1CCN(c2nccc(Nc3ccccc3Cl)n2)CC1)c1ccccn1`, the Potency was inconclusive: 35.5 µM [inhibitor, partial curve, poor fit].
In the case of `O=C(NCCc1ccc(Cl)cc1)c1nc2sccn2c1-c1ccccc1`, the Potency is reported as inconclusive: 50.1 µM [inhibitor, partial curve, poor fit].
With `COc1cccc(CNC(=O)C2CCN(c3nc4ncccc4o3)CC2)c1` the Potency was “inactive”.
For `Cc1noc(C)c1C(=O)N1CC(N2C(=O)c3c(c(C)nn3-c3ccccc3)C2C)C1` (configuration not stated), the Potency was inconclusive: 44.7 µM [inhibitor, partial curve, poor fit].
With `Cn1ncc2c(C(=O)NCCc3ccc(F)cc3)cc(-c3ccccc3)nc21` the Potency was “inactive”.
With `Cc1ccc(-n2nc3n(c2=O)CCN(C(=O)NC2CCCC2)C3)cc1` the Potency was “inactive”.
In the case of `COCCC1(NC(=O)c2ccccc2)CCN(C(=O)c2cccc(C)c2)CC1`, the Potency is reported as inconclusive: 70.8 µM [inhibitor, single point].
In the case of `COc1cc(CNCCC(C)C)ccc1OCC(O)CN1CCSCC1` (configuration not stated), the Potency is reported as inconclusive: 79.4 µM [inhibitor, partial curve, poor fit].
With `O=C1CCN(Cc2ccncc2)CCCC(C(=O)NCc2cccc(C(F)(F)F)c2)CCN1` (configuration not stated) the Potency was “inactive”.
In the case of `CC(C)CN(C/C=C/c1ccccc1)C(=O)C1CC2(CCNCC2)CN1` (configuration not stated), the Potency is reported as inconclusive: 56.2 µM [inhibitor, partial curve, poor fit].
